# Experimental data reported in PMC4336329 (PLoS ONE, 2015).
# Hit rate of the full screen: of about 310,000 compounds, about 2,200 (0.71%) showed an effect of 50% or more. The effect is printed as a negative number. The list shows a part of the results.
# Target: human ether-à-go-go-related gene (hERG) potassium channel (human, UniProt Q12809)
# Experiment: primary screen, population patch clamp on CHO cells stably expressing hERG
# human ether-à-go-go-related gene (hERG) potassium channel, sequence (Q12809 whole entry, looked up): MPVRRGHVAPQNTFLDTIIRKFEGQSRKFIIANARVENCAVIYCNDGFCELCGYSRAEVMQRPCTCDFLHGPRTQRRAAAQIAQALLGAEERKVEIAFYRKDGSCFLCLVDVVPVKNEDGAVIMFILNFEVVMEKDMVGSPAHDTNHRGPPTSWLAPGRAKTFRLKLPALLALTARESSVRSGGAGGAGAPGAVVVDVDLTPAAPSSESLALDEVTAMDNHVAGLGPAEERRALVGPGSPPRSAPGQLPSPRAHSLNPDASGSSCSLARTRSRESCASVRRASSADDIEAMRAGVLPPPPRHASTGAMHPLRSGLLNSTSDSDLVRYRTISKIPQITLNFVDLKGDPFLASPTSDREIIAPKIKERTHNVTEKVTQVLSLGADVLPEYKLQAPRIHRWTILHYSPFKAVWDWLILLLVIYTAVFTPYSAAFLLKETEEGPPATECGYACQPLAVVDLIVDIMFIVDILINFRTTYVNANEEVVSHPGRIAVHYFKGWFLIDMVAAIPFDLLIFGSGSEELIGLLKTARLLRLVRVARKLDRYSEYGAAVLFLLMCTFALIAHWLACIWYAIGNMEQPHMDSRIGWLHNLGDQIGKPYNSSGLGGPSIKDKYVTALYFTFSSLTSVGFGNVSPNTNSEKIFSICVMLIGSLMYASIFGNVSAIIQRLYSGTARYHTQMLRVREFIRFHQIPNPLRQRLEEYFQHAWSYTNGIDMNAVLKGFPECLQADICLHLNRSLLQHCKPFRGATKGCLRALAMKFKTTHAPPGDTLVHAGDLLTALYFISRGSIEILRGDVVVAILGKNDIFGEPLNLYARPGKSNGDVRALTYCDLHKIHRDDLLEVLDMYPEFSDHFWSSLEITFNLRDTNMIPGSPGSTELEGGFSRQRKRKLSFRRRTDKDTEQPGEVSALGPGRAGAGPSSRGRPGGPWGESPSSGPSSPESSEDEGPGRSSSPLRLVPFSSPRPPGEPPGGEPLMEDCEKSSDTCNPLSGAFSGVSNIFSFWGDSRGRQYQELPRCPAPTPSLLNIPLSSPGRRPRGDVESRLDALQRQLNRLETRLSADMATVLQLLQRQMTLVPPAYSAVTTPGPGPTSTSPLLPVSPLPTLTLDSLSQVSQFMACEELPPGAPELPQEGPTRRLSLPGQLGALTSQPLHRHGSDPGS
row,Structure (SMILES),"hERG current change (%, negative = inhibition) at 1uM [%]"
1,C/C(=N\NC(=O)C(O)(c1ccccc1)c1ccccc1)c1ccc(NC(=O)CCCC(=O)O)cc1,11.3
2,CCCCN(C(=O)CCC(=O)Nc1cc(C)on1)C(C(=O)NC(C)(C)C)c1cccc(OC)c1OC (stereo not drawn),17.3
3,Cc1cc(C)n2nc(Sc3ncccc3[N+](=O)[O-])nc2n1,16.2
4,COc1ccc(OC)c2sc(N(CCN(C)C)C(=O)/C=C/c3cccs3)nc12.Cl,-35.1
5,COc1cc2c(cc1OC)CN(CC(=O)Nc1ccc(C)c(C)c1)CC2,6.48
6,COc1cccc(C(=O)Nc2cc(C(=O)NCCc3ccccc3)ccc2Cl)c1,10.9
7,O=C(COC(=O)c1nc(Cl)ccc1Cl)Nc1ccc2[nH]c(=O)[nH]c2c1,-2.16
8,c1cncc(-c2nnc3n2CCC3)c1,9.61
9,COc1ccc(NC(=O)C2(c3cccs3)CCOCC2)cc1,6.2
10,COc1ccc(S(=O)(=O)NC(CC(=O)NCCc2ccccc2)c2ccco2)cc1 (stereo not drawn),15.3
11,CNC(=S)Nc1ccc(C)cc1,12.7
12,CCOc1ccc(/C(C)=N/N2C(=O)C(CC(=O)Nc3ccc(OC)cc3[N+](=O)[O-])SC2=Nc2cccc(C)c2C)cc1 (stereo not drawn),5.11
13,COc1ccccc1NC(=S)NC1CCCCCC1,7.94
14,CCNC(=S)Nc1ccc(OC(F)(F)F)cc1,3.99
15,COc1ccc(-c2nnc(SCC(=O)NCc3ccco3)o2)cc1,9.15
16,CC1CCCN(C(=O)CN(C)S(=O)(=O)c2cccc3nsnc23)C1 (stereo not drawn),10.1
17,Cc1nc2ncnn2c(C)c1CCC(=O)N1CCN(Cc2ccccc2)CC1,0.596
18,Cc1cccc(Nc2nc(N)c([N+](=O)[O-])c(N3CC(C)CC(C)C3)n2)c1 (stereo not drawn),16.2
19,Cc1ccc(-c2nnc(SCC(=O)N/N=C/c3c(C)nn(-c4ccccc4)c3C)n2-c2ccc(C)cc2)cc1,6.43
20,O=C(CSc1nccn(-c2ccc(F)c(Cl)c2)c1=O)NC1CCCC1,13.1
21,CC(C(=O)NCCc1ccc(Cl)cc1)n1c(=O)c2cccn2c2cccnc21 (stereo not drawn),2.33
22,O=C(CCCOc1ccccc1)NC(=S)Nc1ccccc1,8.02
23,Nc1ccc(SCC(=O)Nc2cccc([N+](=O)[O-])c2)cc1,6.76

row,Structure (SMILES),"hERG current change (%, negative = inhibition) at 1uM [%]"
1,O=C(NCc1ccco1)c1ccc(S(=O)(=O)N2CCCCCC2)cc1,4.29
2,COc1cc(NC(=O)Cn2ccsc2=N)cc(OC)c1.Cl,11.4
3,CCOC(=O)c1nnn(-c2nonc2N)c1CN1CCCCCC1,2.5
4,Cc1cc(Cl)c(S(N)(=O)=O)cc1OCC(N)=O,9.34
5,Oc1ccc(C2=Nn3c(nnc3-c3ccco3)SC2)cc1O,1.36
6,Cc1ccc(S(=O)(=O)Nc2ccc(N(C)C)cc2)cc1,12.3
7,COc1ccc(NS(=O)(=O)/C=C/c2ccccc2)cc1,15.3
8,COc1cc(F)c(C2=CC(=O)CC(C)(C)C2)cc1F,5.92
9,CC(=O)Nc1ccc(S(=O)(=O)N(Cc2ccccc2)c2ccccc2F)cc1,8.33
10,CCNc1nc(NCC)n2c(SCC(=O)Nc3ccc(Br)cc3F)nnc2n1,2.95
11,COc1cc(S(=O)(=O)n2cnc(C)c2)ccc1Br,8.54
12,CCN(CC)C(=O)C1CCCN(Cc2ccccc2)C1 (stereo not drawn),11.9
13,Cc1ccc(S(=O)(=O)Oc2ccc3c(c2)O/C(=C\c2cccnc2)C3=O)cc1,-1.74
14,CCOC(=O)c1sc(NC(=O)c2cccnc2)nc1C,12.8
15,CCOCCc1nnc(NC(=O)C2CC(=O)N(c3ccc(OCC)cc3)C2)s1 (stereo not drawn),-3.6
16,Cc1noc(C)c1CSCC(=O)Nc1nc2c(F)cc(F)cc2s1,5.73
17,COc1ccccc1-c1nnc(SCC(=O)N2CCOCC2)o1,2.31
18,COc1ccccc1-c1nnc(SCC(=O)Nc2ccc(S(N)(=O)=O)cc2)n1N,-0.408
19,Cc1cccc(N(CC(=O)NC2CCCC2)C(=O)CNC(=O)c2ccco2)c1C,19.9
20,O=C(Nc1ccccc1C(=O)O)c1ccc(NC(=O)C2CCCCC2)cc1,11.6
21,CCC1CCCCN1CCCNC(=O)CCC(=O)N1CCOc2ccccc21 (stereo not drawn),11.5
22,Cc1ncoc1C(=O)NCCC(c1ccccc1)c1ccccc1,7.32
23,COc1cc(OC)cc(-c2c(-c3ccc(F)cc3)c3cc(-c4cccc5[nH]ccc45)ccc3n2C)c1,6.16

row,Structure (SMILES),"hERG current change (%, negative = inhibition) at 1uM [%]"
1,Cc1nnc(NC(=O)CSc2nnc(CC(=O)Nc3ccccc3F)n2C)s1,10.6
2,CCOC(=O)C1CCN(S(=O)(=O)c2cn(C)c(C)n2)CC1,13.8
3,CC(=O)Nc1cccc(NC(=O)C2CC(=O)N(CCc3ccc(F)cc3)C2)c1 (stereo not drawn),11.5
4,CC(=O)N[C@@H](Cc1ccc(OC(F)(F)F)cc1)C(=O)O,12.6
5,COc1ccc(CCNC(=O)C2CC(c3c(Cl)cccc3Cl)=NO2)cc1 (stereo not drawn),-9.49
6,CC(C)NC(=O)CSc1nnc(-c2ccc3ncccc3c2)n1C,15.9
7,CCC(C)n1c(O)c(C=NCC2CCCO2)c(=O)[nH]c1=S (stereo not drawn),-0.027
8,CC1=CC(C)(C)N(C(=O)CNC2CCCC2)c2cc(C)ccc21.O=C(O)C(=O)O,11
9,COc1ccccc1CNC(=O)COc1ccc(Br)c(C)c1,9.44
10,C1=Nc2ccccc2CN1c1ccccc1.Cl,-5.84
11,COC(=O)C1CC(O)CN1C(=O)c1ccco1 (stereo not drawn),12.8
12,Cc1ccc(C)c(Sc2ccc(NC(=O)CCN3C(=O)NC4(CCCC4)C3=O)cc2)c1,-3.91
13,Cn1c(CNC(=O)C2CCC(=O)N(CCc3cccc(F)c3)C2)nc2ccccc21 (stereo not drawn),-0.364
14,COc1ccc2sc(N(CCN(C)C)C(=O)c3ccc4ccccc4c3)nc2c1.Cl,18.1
15,CCOC(=O)N1CCC(NC(=O)c2cc(S(=O)(=O)N3CCC4(CC3)OCCO4)ccc2F)CC1,0.96
16,CC(C)=CCc1c(-c2ccc(O)cc2O)oc2c3c(cc(O)c2c1=O)OC(C)(C)C=C3,12.4
17,Cc1ccc(/C=N/n2c(-c3ccncc3)n[nH]c2=S)o1,3.44
18,O=c1c2sc(-c3ccccc3)cc2nc2n1CCC2,4.11
19,COc1ccc(N2C(=O)C(C)(C)C2c2c(O)ccc3ccccc23)cc1 (stereo not drawn),27.5
20,CCc1ccc(NC(=O)C2CCN(S(C)(=O)=O)CC2)cc1,13.9
21,COCc1[nH]nc2c1C(c1cccc(OC)c1)C(C#N)=C(N)O2 (stereo not drawn),-10.7
22,CC1CCc2c(sc3ncnc(NS(=O)(=O)c4cccs4)c23)C1 (stereo not drawn),12.7
23,Cn1c(CNc2nc(-c3ccccc3)cs2)nnc1SCC(=O)c1ccccc1,7.62

row,Structure (SMILES),"hERG current change (%, negative = inhibition) at 1uM [%]"
1,Cn1cccc1CC(=O)N/N=C/c1ccc(C(C)(C)C)cc1,11.8
2,c1ccc(Cc2nn3c(Cn4nnc5ccccc54)nnc3s2)cc1,-3.14
3,Cc1ccccc1N1C(=O)c2ccccc2C1Nc1cccnc1 (stereo not drawn),8.29
4,N#C/C(=C\c1ccccc1OCc1ccc(C(=O)O)cc1)C(=O)Nc1ccc(O)cc1,0.758
5,CC1CCN(S(=O)(=O)CCNC(=O)c2ccccc2)CC1,7.11
6,CCOC(=O)N1CCN(C(=O)C(C)N(c2ccccc2)S(C)(=O)=O)CC1 (stereo not drawn),9.93
7,CC(C)(C)c1ccc(S(=O)(=O)N2CCN(C3CCCC3)CC2)cc1,4.83
8,Cc1ccc(CNc2cnccn2)s1,21.4
9,CCc1ccc(/C=C/C(=O)c2cc(Br)ccc(=O)c2O)cc1,10
10,Cc1ccc(-c2cc(NC(=O)c3ccccc3[N+](=O)[O-])n[nH]2)cc1,15.1
11,COC(=O)C1Cc2c([nH]c3ccccc23)CN1C(C)=O (stereo not drawn),14.1
12,COc1cc(OC)nc(NC(C)=O)n1,5.47
13,O=C(O)C[C@H]1c2ccc(C(F)(F)F)cc2S(=O)(=O)N1C1CCCCC1,9.92
14,CSc1ncc(CO)n1Cc1ccccc1,11.9
15,Cc1ccc(C(=O)C2=C(O)C(=O)N(Cc3cccnc3)C2c2ccc(Br)cc2)o1 (stereo not drawn),14.6
16,CN(C)c1cc(NC(=O)CN2CCCC2)c2ccccc2n1.O=C(O)C(=O)O,7.97
17,Cc1ccc(NC(=O)c2ccc(COc3ccccc3)o2)nc1,9
18,CCCCNc1nc(Cl)nc(Nc2ccc(C)cc2)n1,11.8
19,Cc1ccc2nsnc2c1S(=O)(=O)N(Cc1cc2cccc(C)c2[nH]c1=O)CC1CCCO1 (stereo not drawn),-1.74
20,CCCCN(CCCC)S(=O)(=O)c1ccc(NS(=O)(=O)c2ccc(NC(C)=O)cc2)cc1,-1.51
21,O=C(Cn1c2c(c(-c3ccccc3Cl)cc1=O)CCC2)N1CCC2(CC1)OCCO2,6.53
